Test results from US11547737B2, “Compositions and methods for treating virus infection” (priority 2020, dated 2023).

Experiment: Solid form stability of CHP forms by XRPD (storage, drying, DVS)
Description: XRPD analysis was carried out on a PANalytical X'pert pro, scanning the samples between 3 and 35° 2θ. The material was gently ground to release any agglomerates and loaded onto a multi-well plate with Kapton or Mylar polymer film to support the sample. The multi-well plate was then placed into the diffractometer and analysed using Cu K radiation (α1λ=1.54060 Å; α2=1.54443 Å; β=1.39225 Å; α1:α2 ratio=0.5) running in transmission mode (step size 0.0130° 2θ) using 40 kV/40 mA generator settings.
XRPD analysis was carried out on a sample of 5 g of CHP Hydrate. The sample was weighed in a glass vial, and 6 mL of a 90:10 ethanol/water mixture was added to make a slurry. The mixture was then agitated for approximately 24 hours at ambient temperature and then analyzed by XRPD. […] XPRD analysis was carried out to assess any change in the form of the material.
The vial was placed inside the oven for an additional 18 hours. […] There was an extra peak at 8° 2θ that had not been previously seen in any pattern.

O=C1N[C@@H](Cc2cnc[nH]2)C(=O)N2CCC[C@@H]12 [CHP hydrate, cyclo(-His-Pro) hydrate]
form by XRPD (dried at 50° C. for 90 minutes): still predominantly Pattern 2 with some Pattern 1 peaks
form by XRPD (dried at 80° C. for 18 hours): a mixture of Pattern 1 and Pattern 2
form by XRPD (vacuum oven 50° C. for 1 hour): still predominately Pattern 2 with some Pattern 1 peaks
